Hit rate of the full screen: of about 340,000 compounds, about 6,900 (2%) were called active. No stated cut-off is given here; in the data, active means inhibition above about 30%; inactive means below that, where a call was filed. The entries are a selection whose mix differs from that of the whole data set. Entries without a call were filed so in the source.
These molecules were tested against D(2) dopamine receptor (Homo sapiens) (UniProt P14416) (assay: HTS Assay for Allosteric Antagonists of the Human D2 Dopamine Receptor: Primary Screen for Antagonists). Conditions: HEK293 TREx D2 cells, calcium flux, dopamine EC80; at 10 µM; stronger effect = higher value.
Sequence of UniProt P14416 (P14416 whole entry, looked up): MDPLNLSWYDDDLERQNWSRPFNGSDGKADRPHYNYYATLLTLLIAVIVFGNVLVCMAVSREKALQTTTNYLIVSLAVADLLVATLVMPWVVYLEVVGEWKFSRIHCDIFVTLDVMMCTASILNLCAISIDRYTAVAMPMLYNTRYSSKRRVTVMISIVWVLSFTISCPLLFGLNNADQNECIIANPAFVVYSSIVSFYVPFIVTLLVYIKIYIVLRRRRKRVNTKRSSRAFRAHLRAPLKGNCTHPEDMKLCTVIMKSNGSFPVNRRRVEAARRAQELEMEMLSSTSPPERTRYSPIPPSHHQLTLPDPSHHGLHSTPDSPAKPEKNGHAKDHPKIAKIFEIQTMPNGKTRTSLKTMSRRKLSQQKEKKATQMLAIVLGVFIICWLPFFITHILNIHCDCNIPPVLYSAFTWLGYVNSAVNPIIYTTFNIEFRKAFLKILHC
Summary of the method: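 Measurement of antagonist activity uses fluorescent calcium dye in inducible HEK293 T-REx D2 cells: 10 s baseline, compound addition with 180 s read, EC80 dopamine addition with a further 180 s read.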
With `Nc1nnc(SCCN2C(=O)c3ccccc3S2(=O)=O)s1` the inhibition was active: 49.1%.
For `O=C(Cn1c(=O)n2nc(-c3cccc(F)c3)nc2c2ccccc21)NCc1ccc(Cl)cc1`, the inhibition was -17.8%.
Molecule `COc1cccc(NC(=O)Cn2c(=O)n(Cc3ccco3)c(=O)c3cc(OC)c(OC)cc32)c1` has an inhibition of 6.03%.
For `CCOC(=O)C1CCN(CC(=O)Nc2c(C(=O)OC)[nH]c3ccccc23)CC1`, the inhibition was active: 48.8%.
Molecule `Cc1ccn2c(Nc3ccccc3C)c(-c3ccccc3)nc2c1` has an inhibition of 13%.
For `O=C(Nc1ccc2nc(SCC(=O)N3CCOCC3)sc2c1)c1ccccc1Cl`, the inhibition was -1.28%.
For `Cc1ccc(NC(=O)CSc2nnc(COc3ccc(Cl)cc3)o2)c(C)c1`, the inhibition was 6.64%.
`Cc1cccc(OCC(=O)Nc2ccccc2OCc2cc(=O)n3cc(C)ccc3n2)c1` was tested, and the inhibition was 2%.
Molecule `Cc1ccc(NCc2cccn2-c2nnc(N3CCC(C(=O)NCc4ccc(F)cc4)CC3)s2)cc1` has an inhibition of 3.53%.
`CCn1ccc2cc(S(=O)(=O)N3CCC(C(=O)NCc4ccc(F)cc4)CC3)ccc21` showed an inhibition of 11.2%.
With `COc1ccc(N(C)C(=O)C2CCN(S(=O)(=O)c3cc(Br)cc4c3N(C(C)=O)CC4)CC2)cc1` the inhibition was 6.53%.
`Cc1ccc(OCc2cc(=O)n3ccsc3n2)c(NC(=O)c2ccco2)c1` gave an inhibition of 10.6%.
Work on `Cn1c(=O)n(C)c2cc(N3CCCCC3)c(NC(=O)c3c(F)cccc3F)cc21` yielded an inhibition of 0.869%.
In the case of `CCOC(=O)c1cc(-c2ccccc2)n(CCC(=O)NCCc2ccc(OC)c(OC)c2)c1C`, the inhibition is reported as 14.5%.
For `COc1ccc(-c2nc3cc(NC(=O)c4cc5ccccc5o4)ccc3o2)cc1`, the inhibition was 4.07%.
For `CCc1cccc(C)c1NS(=O)(=O)c1ccc(-c2cc(C)no2)s1`, the inhibition was -4.69%.
For `COc1ccccc1NC(=O)CSc1nnc(-c2ccco2)n1N`, the inhibition was active: 33.9%.
`COc1ccc(-c2cccc(NS(=O)(=O)c3cc(C)ccc3OC)c2)nn1` was tested, and the inhibition was -0.495%.
With `Cc1cccc(NC(=O)c2c(N)sc3c2CCC(C)C3)c1` (stereo unspecified) the inhibition was -8.36%.
`Cc1ccccc1NC(=O)c1c(NC(=O)c2cccs2)sc2c1CCC(C)C2` (stereo unspecified) was tested, and the inhibition was -5.4%.
Work on `Cc1ccccc1Nc1c(-c2ccc(N3CCOCC3)cc2)nc2ccc(Cl)cn12` yielded an inhibition of 7.1%.
`N#Cc1nc(/C=C/c2ccc(F)cc2)oc1NC1CCCCC1` gave an inhibition of 13.1%.
`COc1ccc(C(=O)NCC(c2ccco2)S(=O)(=O)c2cccs2)cc1` (stereo unspecified) gave an inhibition of -13.7%.
In the case of `Cc1ccc(-c2nc3ncccc3o2)cc1NC(=O)c1ccc(-c2cccc(Cl)c2C)o1`, the inhibition is reported as -2.99%.
In the case of `CCc1cccc(C)c1NC(=O)c1cn2c3c(ccc(Cl)c3c1=O)OC(C)C2` (stereo unspecified), the inhibition is reported as 6.26%.
`Cc1cccc(N2CCN(c3ncnc4onc(C)c34)CC2C)c1` (stereo unspecified) gave an inhibition of -7.33%.
For `Cc1nc(-c2cccc(F)c2)sc1CCNC(=O)C(=O)Nc1ccc2c(c1)OCO2`, the inhibition was 8.74%.
`CCCCN(C)S(=O)(=O)c1cc(-c2cc(C)no2)ccc1C` gave an inhibition of 3.45%.
In the case of `CCOc1ccc(S(=O)(=O)NCC(c2ccc(N(C)C)cc2)N2CCc3ccccc32)cc1` (stereo unspecified), the inhibition is reported as 2.79%.
Work on `Cc1cc(-c2nc3ncccc3o2)ccc1NC(=O)c1ccc(Cl)cc1` yielded an inhibition of 8.44%.
Molecule `COC(=O)CSc1ccc2nnc(CCNS(=O)(=O)c3ccccc3)n2n1` has an inhibition of -7.33%.
Molecule `CCOc1ccc(NC(=O)c2c(NC(=O)c3ccccc3Br)sc3c2CCC(C)C3)cc1` (stereo unspecified) has an inhibition of 1.76%.
In the case of `O=C(COC(=O)c1ccc(O)cc1O)Nc1ncc(Cl)cc1Cl`, the inhibition is reported as active: 31.1%.
`CCOc1ccc(NC(=O)CC2C(=O)N(c3ccc(C)cc3)C(=O)N2Cc2ccc(OC)cc2)cc1` (stereo unspecified) was tested, and the inhibition was 11.5%.
`COc1ccc(OC)c(NC(=O)N(C)CCc2c(C)nn(C)c2C)c1` was tested, and the inhibition was 18%.
In the case of `O=C(NCCCCc1ccccc1)c1nn(-c2ccccc2)nc1CO`, the inhibition is reported as -9.69%.
In the case of `Cn1c(=O)oc2cc(S(=O)(=O)N3CCCC(C(=O)N4CCN(c5cccc(Cl)c5)CC4)C3)ccc21` (stereo unspecified), the inhibition is reported as 0.297%.
`COc1ccc(NC(=O)Cn2nnc(C(=O)Nc3ccc(C)c(F)c3)c2N)cc1Cl` was tested, and the inhibition was -2.58%.
`CC1=C(C(=O)OCC2CCCCC2)C(c2cccc(F)c2F)CC(=O)N1` (stereo unspecified) gave an inhibition of -3.06%.
For `CCN1CCN(c2nc(Nc3ccc(OC)cc3)nc(N)c2[N+](=O)[O-])CC1`, the inhibition was active: 41.5%.
`COc1ccc(CNC(=O)CN(c2ccc(OC)cc2)S(=O)(=O)c2c(C)[nH]c(=O)[nH]c2=O)cc1` showed an inhibition of -10.1%.
Work on `Cc1cc(C)cc(OCCn2c(CCNC(=O)C3CCCCC3)nc3ccccc32)c1` yielded an inhibition of -11.8%.
For `O=C(Cc1ccccc1F)N1CCC(c2nc3c(nnn3Cc3cccc(Cl)c3)c(=O)[nH]2)CC1`, the inhibition was -2.04%.
With `Cc1ccc(-n2c(-c3ccco3)nc3c(cnn3-c3ccc(C)cc3)c2=O)cc1` the inhibition was -19.3%.
Molecule `CCOC(=O)c1ccc(NC(=O)c2c(NCc3cc(OC)c(OC)cc3OC)sc3c2CCCC3)cc1` has an inhibition of -10.4%.
In the case of `CCCc1cnc2c(c1SCC(=O)Nc1cccc(C)c1C)c(=O)n(C)c(=O)n2C`, the inhibition is reported as 1.17%.
`CCOc1ccc(-c2nonc2NC(=O)COc2ccccc2)cc1` gave an inhibition of 10.7%.
Work on `CCN1CCN(c2cc3c(cc2F)c(=O)c(S(=O)(=O)c2cc(C)cc(C)c2)cn3CC)CC1` yielded an inhibition of -8.92%.
`O=C(NCCN1CCOCC1)c1ccc([N+](=O)[O-])cc1[N+](=O)[O-]` was tested, and the inhibition was active: 43%.
In the case of `CC1(C)CC(=O)c2cc(OCC(=O)NCCCN3CCN(c4ccccc4F)CC3)ccc2O1`, the inhibition is reported as active: 81.8%.
Molecule `CCN(c1ccc(C)cc1C)S(=O)(=O)c1nnc(NC(=O)c2ccccc2OC)s1` has an inhibition of -18.1%.
Molecule `CCOC(=O)c1oc2ccc(S(=O)(=O)n3nc(-c4cc(OCC)c(OCC)c(OCC)c4)cc3N)cc2c1C` has an inhibition of -1.67%.
`CCOC(=O)c1ccc(NC(=O)CC2C(=O)N(c3ccccc3)C(=O)N2C2CCCCC2)cc1` (stereo unspecified) showed an inhibition of 13.6%.
Work on `CCOc1cccc(C(=O)Nc2ccc(NC(=O)c3ccc(Br)cc3)cc2)c1` yielded an inhibition of -0.195%.
In the case of `O=C(CSc1oc(-c2ccco2)nc1S(=O)(=O)c1ccccc1)c1ccc(Cl)cc1`, the inhibition is reported as 1.29%.
With `O=C(NCc1ccccc1C(F)(F)F)C1CC(c2cccc(F)c2)=NO1` (stereo unspecified) the inhibition was active: 41.8%.
`CCCN(CCC)CCCNC(=O)c1cn(CC)c2ccc(S(=O)(=O)N3CCc4ccccc4C3)cc2c1=O` gave an inhibition of -1.15%.
In the case of `COc1cccc(CNCCSc2nnnn2C)c1OCc1ccc(Cl)cc1`, the inhibition is reported as 17.5%.
`CC(C)c1ccc(NC(=O)C2CCCN(S(=O)(=O)c3ccc4[nH]c(=O)ccc4c3)C2)cc1` (stereo unspecified) showed an inhibition of 4.69%.
`CCc1ccc(Cn2nnc(C(=O)Nc3ccc(C)cc3)c2N)cc1` gave an inhibition of -17.5%.
`COc1cc(NC(=O)Cn2cnc3sc(C)c(S(=O)(=O)N4CCN(C)CC4)c3c2=O)cc(OC)c1OC` was tested, and the inhibition was 5.47%.
Further: 0% is about no effect.
